Laboratory results as given in PubChem BioAssay (NCATS).
“And” between values parts separate entries of the source, which are not always exact repeats. Equal entries are not always repeated. The inconclusive results got no clear call from the source; some entries with a clear call stand among them for comparison. For some assays here: No potency is given beside an inconclusive call; the fits are too rough. The source made the active and inactive calls. Unless noted, the call rests on the fitted dose curve; in most records, active means well fitted curve in the direction sought with a large enough effect; inconclusive means small, poorly fitted or top-dose-only effect, or another doubt; inactive means no such curve, though single readings can be large; an effect the other way counts as inactive or inconclusive.

Experiments:
[1] = Primary redox qHTS assay for identification of artifact compounds. (AID 1845223)
Outline: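 Amplex Red (25 uM) and HRP (250 mU/mL) in HBSS, with compounds for 15 min, then 250 uM DTT for 30 min, room temperature, dark. Fluorescence 525/598 nm read; normalized to DMSO and 10 uM DA3003; Hill fit.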

HEK293 = assay: Cytotoxic Profiling of Annotated Libraries Using Quantitative High-Throughput Screening (AID 1296008); conditions: Five cell lines viability, CellTiter-Glo ATP luminescence, 48-72 h; max response: hits give low values; further: nearly all actives have a fitted effect of over 60% in size; on max response: on the % scale 0 is the no-effect control and ±100 the full control effect
Outline: (§1)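 Cytotoxicity was measured as CellTiter-Glo ATP luminescence, read after 10 min at room temperature. Compound treatment of the cells lasted 48 or 72 hr at 37 degrees Celsius in a qHTS format.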

NIH3T3 = assay: as above; conditions: Five cell lines viability, CellTiter-Glo ATP luminescence, 48-72 h; max response: hits give low values
Outline: as §1

CAOV3 = assay: Primary qHTS to identify gynecologic anti-cancer compounds using libraries of approved drugs and bioactive compounds (AID 1345084); conditions: Gynecologic cancer cell panel viability, ATPlite luminescence, 48 h; series mostly up to 57.5 µM; further: nearly all actives have a fitted effect of over 55% in size; on activity change, negative = cytotoxicity: on the % scale 0 is the no-effect control and ±100 the full control effect
Outline: (§2)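 ATP-based viability (ATPlite), 1,000 cells/well, 16 h pre-incubation, 48 h compound at 37 C, 5% CO2, 15 min RT before read.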

Hek293T = assay: as above; conditions: Gynecologic cancer cell panel viability, ATPlite luminescence, 48 h, control line for the selectivity index; series mostly up to 57.5 µM
Outline: as §2

[2] = Primary qHTS for inhibitors of nuclear receptor binding SET domain protein 2 (NSD2) in an RCH-ACV wild type WT cells (2C) (AID 1645877); conditions: activity change, negative = cell killing: at 44.9 µM (top of the series); further: nearly all actives have a fitted effect of over 70% in size
C33A = assay: Primary qHTS to identify gynecologic anti-cancer compounds using libraries of approved drugs and bioactive compounds (AID 1345084); conditions: Gynecologic cancer cell panel viability, ATPlite luminescence, 48 h; series mostly up to 57.5 µM; further: nearly all actives have a fitted effect of over 55% in size; on activity change, negative = cytotoxicity: on the % scale 0 is the no-effect control and ±100 the full control effect
Outline: as §2

Tov-21-G = assay: as above; conditions: Gynecologic cancer cell panel viability, ATPlite luminescence, 48 h; activity change, negative = cytotoxicity: at 57.5 µM (top of the series)
Outline: as §2

[3] = P-glycoprotein substrates identified in KB-8-5-11 adenocarcinoma cell line, qHTS therapeutic library screen (AID 1346987); further: nearly all actives have a fitted effect of over 65% in size
Outline: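 Steps: plate 500 KB-8-5-11 cells/well in DMEM + 10% FCS (colchicine removed); pin compounds in dose-response; incubate 72 h, 37 degree C, 5% CO2; add CellTiter-Glo, 5 min; read luminescence.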

[4] = system: Zika virus NS2B-NS3 protease (linked construct); assay: Primary screen NINDS Rhodamine qHTS for Zika virus inhibitors (AID 1347160); further: nearly all actives have a fitted effect of over 55% in size
Outline: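 In 10 mM Tris-HCl pH 8.0 containing 0.01% Tween 20, linked NS2B-NS3 protease (25 nM final) is exposed to test compounds for 15 min. Cleavage of 1.5 microM Rhodamine110 substrate is tracked by fluorescence over 15 min.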

[5] = target: Cytochrome P450 2D6 (Homo sapiens) (UniProt P10635); assay: Cytochrome P450 family 2 subfamily D member 6 (CYP2D6) small molecule antagonists: luciferase biochemical (cell-free) qHTS assay (AID 1645840; active means well fitted curve in the direction sought with a large enough effect in the repeat runs; inconclusive means weak or mixed curves; inactive means no such curve, though single readings can be large; an effect the other way counts as inactive or inconclusive; further: nearly all actives have a fitted effect of over 55% in size)
Outline: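 P450-Glo luminescent screen: recombinant CYP2D6 enzyme–proluciferin substrate mix preincubated with compound 10 min at room temperature, then NADPH regeneration added for 1 h at room temperature. Detection reagent added for 20 min; luciferin light read as relative luminescence units.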

CASKI = assay: Primary qHTS to identify gynecologic anti-cancer compounds using libraries of approved drugs and bioactive compounds (AID 1345084); conditions: Gynecologic cancer cell panel viability, ATPlite luminescence, 48 h; activity change, negative = cytotoxicity: at 57.5 µM (top of the series); further: nearly all actives have a fitted effect of over 55% in size; on activity change, negative = cytotoxicity: on the % scale 0 is the no-effect control and ±100 the full control effect
Outline: as §2

OV90 = assay: as above; conditions: Gynecologic cancer cell panel viability, ATPlite luminescence, 48 h; series mostly up to 57.5 µM
Outline: as §2

SKOV3 = assay: as above; conditions: Gynecologic cancer cell panel viability, ATPlite luminescence, 48 h; series mostly up to 57.5 µM
Outline: as §2

[6] = Primary fluorescence-based thiol-reactive (MSTI) qHTS assay for identification of artifact compounds. (AID 1845221);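 further: thiol-reactive compounds lower the probe fluorescence signal; nearly all actives have a fitted effect of over 65% in size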
Outline: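 A multi-concentration qHTS design tested compounds against 4 uM MSTI, pH 7.4 phosphate-buffered saline. Plates were protected from light for 1 h at room temperature before imaging fluorescence.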

[7] = system: Zika virus NS2B-NS3 protease (unlinked complex); assay: Primary screen GU Rhodamine qHTS for Zika virus inhibitors: Unlinked NS2B-NS3 protease assay (AID 1347159); further: nearly all actives have a fitted effect of over 60% in size
Outline: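 Percent inhibition derives from the 15-min fluorescence change (ex 480, em 540 nm), normalized to no-enzyme and no-inhibitor wells. Reactions contained 25 nM NS2B-NS3 complex and 1.5 microM substrate in 10 mM Tris-HCl pH 8.0.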

[8] = Primary qHTS for inhibitors of nuclear receptor binding SET domain protein 2 (NSD2) in an isogenic RCH-ACV NSD2 p.E1099K mutant (9B) (AID 1645876); further: nearly all actives have a fitted effect of over 70% in size
JEG-3 = assay: Primary qHTS to identify gynecologic anti-cancer compounds using libraries of approved drugs and bioactive compounds (AID 1345084); conditions: Gynecologic cancer cell panel viability, ATPlite luminescence, 48 h; series mostly up to 57.5 µM; further: nearly all actives have a fitted effect of over 55% in size
Outline: as §2

PA-1 = assay: as above; conditions: Gynecologic cancer cell panel viability, ATPlite luminescence, 48 h; series mostly up to 57.5 µM
Outline: as §2
Potency means the concentration at half of the fitted maximal effect; tags describe the fitted curve by direction and shape.

UniProt P10635, sequence (P10635 whole entry, looked up): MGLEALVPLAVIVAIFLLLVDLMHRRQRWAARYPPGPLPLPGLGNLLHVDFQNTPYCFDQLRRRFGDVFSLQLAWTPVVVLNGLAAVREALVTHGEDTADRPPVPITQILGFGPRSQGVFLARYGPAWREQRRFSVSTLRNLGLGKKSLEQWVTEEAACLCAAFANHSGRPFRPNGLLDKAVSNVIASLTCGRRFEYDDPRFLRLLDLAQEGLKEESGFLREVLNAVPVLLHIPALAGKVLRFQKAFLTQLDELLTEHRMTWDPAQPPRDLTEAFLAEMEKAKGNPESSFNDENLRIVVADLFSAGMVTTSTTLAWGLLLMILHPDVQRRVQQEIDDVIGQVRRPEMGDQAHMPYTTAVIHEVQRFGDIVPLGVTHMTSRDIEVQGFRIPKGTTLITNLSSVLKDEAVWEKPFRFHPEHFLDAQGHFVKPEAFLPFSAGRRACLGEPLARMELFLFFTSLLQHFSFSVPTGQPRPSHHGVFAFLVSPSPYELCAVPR

## C[C@@H]1O[C@@H](O[C@H]2[C@H](O)[C@@H](O[C@@H]3O[C@H](CO)[C@@H](O)[C@H](O[C@@H]4O[C@H](CO)[C@@H](O)[C@H](O)[C@H]4O)[C@H]3O)[C@H](O[C@H]3CC[C@@]4(C)C(=CC[C@@H]5C4CC[C@@]4(C)C5C[C@@H]5OC6(CC[C@@](C)(CO[C@@H]7O[C@H](CO)[C@@H](O)[C@H](O)[C@H]7O)O6)[C@@H](C)[C@@H]54)C3)O[C@@H]2CO)[C@H](O)[C@H](O)[C@H]1OC1OC(CO)C(O)C(O)C1O (some centres not stated)
[1]
  Potency: inconclusive [activator, partial curve, poor fit]
HEK293
  max response: inactive: -4.6%
NIH3T3
  max response: inactive: -4.4%
CAOV3
  activity change, negative = cytotoxicity: inactive: 7.26% [at 6.55 µM]
Hek293T
  activity change, negative = cytotoxicity: inactive: 3.68% [at 6.55 µM]

## C=C(C)C1=C[C@@]2(C)C(=CC1=O)CC[C@@H](O)[C@@H]2C
[2]
  Potency: inconclusive [inhibitor, single point]
HEK293
  Potency: inconclusive [inhibitor, single point]
NIH3T3
  Potency: inconclusive [inhibitor, partial curve, poor fit]
C33A
  Potency: inactive
Tov-21-G
  Potency: inactive

## CC(C)c1c2cc(-c3ccnc(NC4CCC(NC5CCOCC5)CC4)n3)ccc2nn1C (configuration not stated)
[3]
  Potency: active: 1.84 µM
[4]
  Potency: inactive
[5]
  Potency: inconclusive [inhibitor, single point]
HEK293
  Potency: active: 0.13 µM
NIH3T3
  Potency: active: 1.03 µM
C33A
  Potency: inconclusive [cytotoxic, full curve, poor fit]
CASKI
  Potency: active: 0.631 µM
Hek293T
  Potency: inconclusive [cytotoxic, full curve]
OV90
  Potency: inconclusive [cytotoxic, full curve, poor fit]
SKOV3
  Potency: inconclusive [cytotoxic, full curve, poor fit]
Tov-21-G
  Potency: inconclusive [cytotoxic, full curve, poor fit]

## CC1CC(=O)NN=C1c1ccc(NCC(C)(C)NCC(O)COc2cc(Cl)ccc2C#N)cc1 (configuration not stated)
[5]
  Potency: active: 0.871 µM
[6]
  Potency: inconclusive [inhibitor, full curve, poor fit]
HEK293
  Potency: inconclusive [inhibitor, partial curve]
NIH3T3
  max response: inactive: -20.4%
C33A
  Potency: inconclusive [cytotoxic, single point]
CAOV3
  Potency: inactive

## COc1cc(F)c(F)c(Nc2ccc(I)cc2F)c1NS(=O)(=O)C1(CC(O)CO)CC1 (configuration not stated)
[3]
  Potency: inconclusive [inhibitor, single point]
[4]
  Potency: inactive
[2]
  Potency: active: 25.8 µM
[1]
  Potency: inconclusive [activator, full curve, poor fit]
HEK293
  Potency: inconclusive [inhibitor, single point]
NIH3T3
  Potency: active: 5.17 µM
CAOV3
  Potency: inconclusive [cytotoxic, full curve]
OV90
  Potency: inconclusive [cytotoxic, full curve, poor fit]
SKOV3
  Potency: inconclusive [cytotoxic, partial curve, poor fit]
Tov-21-G
  Potency: inconclusive [cytotoxic, full curve, poor fit]

## COc1cc2c(c(OC)c1CC=C(C)C)C[C@H](c1ccc(O)c(CC=C(C)C)c1O)CO2
[3]
  Potency: inconclusive [inhibitor, partial curve, poor fit]
[7]
  Potency: active: 17.8 µM
[4]
  Potency: inconclusive [inhibitor, single point]
[8]
  Potency: inconclusive [inhibitor, partial curve, poor fit]
[6]
  Potency: inconclusive [inhibitor, single point]
HEK293
  Potency: inconclusive [inhibitor, single point]
NIH3T3
  max response: inactive: -5.48%
CAOV3
  Potency: inconclusive [rising, partial curve, poor fit]
SKOV3
  Potency: inactive

## CN(CCc1ccc(Nc2ncc(-c3cccnc3)s2)cc1)Cc1ccccc1
[1]
  Potency: inconclusive [activator, single point]
HEK293
  Potency: active: 7.31 µM
NIH3T3
  Potency: inconclusive [inhibitor, single point]
C33A
  Potency: inactive
SKOV3
  Potency: inconclusive [cytotoxic, single point]
Tov-21-G
  Potency: inactive

## CCOc1cc(C(=O)N2CCC(N3CCN(C)CC3)CC2)ccc1Nc1ncc2c(n1)N(C1CCCC1)c1ccccc1C(=O)N2C
[3]
  Potency: active: 13 µM
[5]
  Potency: inconclusive [inhibitor, single point]
[8]
  Potency: active: 1.15 µM and active: 1.86 µM
HEK293
  Potency: active: 11.6 µM
NIH3T3
  Potency: inconclusive [inhibitor, single point]
CAOV3
  Potency: active: 31.6 µM
JEG-3
  Potency: inconclusive [cytotoxic, partial curve, poor fit]
PA-1
  Potency: inconclusive [cytotoxic, full curve]
SKOV3
  Potency: active: 35.5 µM
Tov-21-G
  Potency: inconclusive [cytotoxic, single point]
